The other results are listed elsewhere or left out. At the low end of the ranking the order means little. Measured with an extract: partners may take part in the binding.

In the experiment the target is T1, HNF4alpha8 (COS-7 nuclear extract) (UniProt P41235-5).
T1 sequence: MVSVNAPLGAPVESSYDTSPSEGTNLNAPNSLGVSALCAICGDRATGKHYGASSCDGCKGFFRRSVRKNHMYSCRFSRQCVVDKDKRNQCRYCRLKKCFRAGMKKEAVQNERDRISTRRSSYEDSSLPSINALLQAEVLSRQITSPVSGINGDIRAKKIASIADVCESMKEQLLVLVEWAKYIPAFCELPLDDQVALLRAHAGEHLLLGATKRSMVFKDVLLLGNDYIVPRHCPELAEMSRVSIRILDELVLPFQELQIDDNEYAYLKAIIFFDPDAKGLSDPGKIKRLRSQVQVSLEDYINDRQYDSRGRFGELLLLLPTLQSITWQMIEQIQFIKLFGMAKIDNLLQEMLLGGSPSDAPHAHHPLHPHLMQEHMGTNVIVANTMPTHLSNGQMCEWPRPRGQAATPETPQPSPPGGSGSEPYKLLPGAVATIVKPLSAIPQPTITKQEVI
As to the kind of experiment: protein-binding microarray. The note with it: COS-7 nuclear extract on double-stranded Agilent 4x180k PBM; binding buffer, salt, pH and temperature not given; high values mean tight binding; double strand, one strand shown; sequences stand for … in …GCCTAGGGAGATTAGAGTATCGGTCGA
On to TTGAACTGAAGGATATTGGCAACGCCTCAG, for which the binding signal (log2 normalized intensity) was -1.25.

As for CAAAGGAGCTTTATTGGTTCCATAAGTCAA, the binding signal (log2 normalized intensity) stood at 0.795.

Consider ACATTTAACTTAACCACTCAATCAGTACTG, for which the binding signal (log2 normalized intensity) is -0.448.

For the sequence AGGAATTCTGATCTTTGACCTCTCCAGGGT, the binding signal (log2 normalized intensity) was found to be 7.01.

As for CAAAGGACAGGCTGACTATCACTGGGAGAT, the binding signal (log2 normalized intensity) was -1.28.

As to CAGGGCACATGTACACAGGAATATCAACAG, the binding signal (log2 normalized intensity) was -1.25.

With ACAGCATTAGAGCAACCAGAATGTTCAAAA, the binding signal (log2 normalized intensity) was -1.14.

CCAAACCAGTTCAACAAGAATTCCCCACTC: the binding signal (log2 normalized intensity) was -0.505.

For the sequence ATCAGCAATGAACAAAGGTCGGTGGTATGT, the binding signal (log2 normalized intensity) turned out to be 3.25.

With TCCCAGAGCATACATGCAGCTGAGAAAGAG, the binding signal (log2 normalized intensity) was -1.42.

Take GAGCAAGAAACAGCAAATGCTTTTATTACC: the binding signal (log2 normalized intensity) was -1.37.

With AAACTCAGAGTCAAATCCCCTAGGTGATTA, the binding signal (log2 normalized intensity) was -0.758.

TAAAACAAACTCATTTTGATCTTTGTGTAC: the binding signal (log2 normalized intensity) was 3.19.

Turning to TAACCATTCTTTCTGAGAAAAGCTGATGAC, the binding signal (log2 normalized intensity) was -1.07.

On to AGGGGTGGGGACCTTTGGGCTCTGACCCGA, for which the binding signal (log2 normalized intensity) came out at 3.4.

Regarding AGTATCTATAGTTATTGCATGCAAGAGTTC, the binding signal (log2 normalized intensity) was 1.83.

For GGGCCGGCTCAGGAGAAGGGCCCATGGGCT, the binding signal (log2 normalized intensity) is -1.38.

On to CCTGAAGGCTGAGCCTAGGAGTTCAATGCT, for which the binding signal (log2 normalized intensity) was -1.21.

Take TCTGCTTAAAGGCAAAGTCCAGAACCTGGA: the binding signal (log2 normalized intensity) turned out to be 3.78.

Take CAGACTAAACTCACAATGGGGCATGACTTG: the binding signal (log2 normalized intensity) is -0.674.

TAAGAAAGGCTACAAAGGTGACTTGCCCAG: the binding signal (log2 normalized intensity) is -0.214.

As to CTGACAGACTGCCATTCCAGAAGTAGGATG, the binding signal (log2 normalized intensity) is -1.42.

As to TTGCACAGTATTTGGTGAGGCCCCAGTGTC, the binding signal (log2 normalized intensity) is 1.76.

Consider CATTCTTATCACAGAGCATCTGGTGGAACT, for which the binding signal (log2 normalized intensity) came out at 1.04.

Turning to CCAGGGGAAACTCCATTTCCTTCTAGCTCC, the binding signal (log2 normalized intensity) was -1.31.

Regarding ATAACACACAGGCTCAACGGGTTAGACGCA, the binding signal (log2 normalized intensity) was -1.47.

GACAGGCTAATGAGATAATGCTGGTAAAGC: the binding signal (log2 normalized intensity) was -1.33.

Consider GGGAAAGGGATAAGATTAGGTGCTGAGCAA, for which the binding signal (log2 normalized intensity) is -1.27.

As to CAAACAGGTCAAGCAATGCTGGGGACCTTT, the binding signal (log2 normalized intensity) is 3.76.

Regarding AGCAGCTGTTTGACCAAAGCTACTCATCAT, the binding signal (log2 normalized intensity) is -1.3.

For the sequence GTATAACCTGGAACTGAAAGAGACCTTTGA, the binding signal (log2 normalized intensity) came out at 6.06.

Take CACCTACATTCAGGACACTTCTGAAAAAAA: the binding signal (log2 normalized intensity) is -1.35.

For the sequence TAGGCATTGAGGCAGCCAGCGCAGGGGCTT, the binding signal (log2 normalized intensity) was -1.38.

Consider CAACCAGAGGTCACTTTTATCACCATCTTG, for which the binding signal (log2 normalized intensity) amounted to 1.16.

Regarding GGAGTTGCTTGTGTTGGAGCATTAGTTGAC, the binding signal (log2 normalized intensity) was determined as 1.1.

Regarding CTGGGGGCTGGGCGCGGGATCCTCTTTCCT, the binding signal (log2 normalized intensity) was -1.13.

Take GGAAGACAGTCTTGGGCACAAAGTACAAAA: the binding signal (log2 normalized intensity) came to 3.14.

For CCCAAGGGATAGGCAGGAGTTAACTAACAA, the binding signal (log2 normalized intensity) was -1.43.

Regarding AGAGCATCTTGGACTTGGGACTCTGCAGAC, the binding signal (log2 normalized intensity) amounted to 5.66.

Regarding TAACTTAACCACTCAATCAGTACTGAAACA, the binding signal (log2 normalized intensity) was -1.27.

For the sequence GCCCCAGCTCGCTCAGCTGGTTGCCCCTTT, the binding signal (log2 normalized intensity) was found to be 4.47.

Consider CTGACATGCTGTCACTTCTGCTGCATTCTA, for which the binding signal (log2 normalized intensity) is -1.22.

In the case of TAAATCATGGGGAGCATCTATTTTCTATTT, the binding signal (log2 normalized intensity) was -0.474.

GGCAGGGTTGGCTGTGGCAATTCCTTAAAA: the binding signal (log2 normalized intensity) is -1.24.

With AGGCAGAGACTGCCCTGAGCCGCCAGGCGG, the binding signal (log2 normalized intensity) is -1.33.

TAATAGCCAGAACTCAGGGTCTGGTTCCAA: the binding signal (log2 normalized intensity) was -0.604.

For the sequence CTGATAAAGGAAGGAATTTACTGCAGTCAG, the binding signal (log2 normalized intensity) was -1.42.

As for GGCAGGTTGCCCTTTCGGTGGGACTAAATT, the binding signal (log2 normalized intensity) stood at 1.87.

Take GTCACGTTCCAGCTGCTTCAGGAGCCCCCT: the binding signal (log2 normalized intensity) came out at 3.98.

GTAAGTTAAGTAACTCTCCAAATTCCAGGA: the binding signal (log2 normalized intensity) was -1.28.

As for CCACTGGTGTAAGCTCTGGAGTCCAAAGGT, the binding signal (log2 normalized intensity) turned out to be 4.54.

For AGGAGGATCAGGTTTCACTGTTTTGGACAT, the binding signal (log2 normalized intensity) was 1.72.

As for TGGATTAGTCCCTTTTCACGCTAAGAAGGA, the binding signal (log2 normalized intensity) was -0.973.

Turning to CCAGATAAACAGAAGAAAGGGGCTAGGGCA, the binding signal (log2 normalized intensity) is -1.24.

In the case of GAGCTGAGGAATTTCACCCAGGTATGACAA, the binding signal (log2 normalized intensity) was -1.34.

As to GGCTTGTGTTTAACCTTTGGGTGTGTTCAG, the binding signal (log2 normalized intensity) amounted to 2.96.

With GGCCCTGCAGGGCCCCACATTTCAGGAATG, the binding signal (log2 normalized intensity) amounted to 0.309.

For the sequence CCTAACTATGGTTGATAAGGAAGTCCATGA, the binding signal (log2 normalized intensity) turned out to be 1.58.

Turning to TATGCATTTGTCTCAGGTGGGCAGAGGCCT, the binding signal (log2 normalized intensity) is -0.0778.

Take CCTTAGCTCTAGACATCGACCTTTGTGGGC: the binding signal (log2 normalized intensity) amounted to 4.67.

Consider AAAGGTCAGGGATAGAACTGGTCCTGTGGG, for which the binding signal (log2 normalized intensity) was 1.

For the sequence CTAGCTGAGTGAGTAGGTTCTCAGCTGACA, the binding signal (log2 normalized intensity) was -1.26.

CAGTTTGAAAAACACTGGATAAAGTCCATA: the binding signal (log2 normalized intensity) turned out to be 2.95.

Consider AGCTAGTGCTAAAGGTCATATCCAAAATAT, for which the binding signal (log2 normalized intensity) came out at 4.83.

In the case of GGAGACTTCAAACGGGAAGCGAGGCCTCAT, the binding signal (log2 normalized intensity) was -1.35.

Turning to TAGGCTATCAGACAGCCACACTTTAATGTG, the binding signal (log2 normalized intensity) is -1.38.

As to GATCTTTGTTAGACCCTTATCAGTAGTTCT, the binding signal (log2 normalized intensity) was 1.75.

TGTAACTAACAACTGACCTTGCAGGCCAGG: the binding signal (log2 normalized intensity) came to 1.03.

For GATCCTTATCAGTGTGAGCTACAAGTGAAT, the binding signal (log2 normalized intensity) worked out at 0.424.

Consider CTGAGAGATTTTTTCTTCCACCTCCCTCCA, for which the binding signal (log2 normalized intensity) was 1.64.

In the case of TATGTCATAATGTACTCCACTGTGCAGTGG, the binding signal (log2 normalized intensity) is 0.944.

Consider TTTAAGATTCCAGCTCTCGGATCCTCTGGG, for which the binding signal (log2 normalized intensity) is -1.24.

Values taken from article PMC10726135.
